{"source": "patent US8895739B2", "about": "“Acylation of hindered amines and functionalized bis-peptides obtained thereby” (Temple University of the Commonwealth System of Higher …, priority 2008, dated 2014)", "key": {"HDM2": {"target": "T1, HDM2 (Homo sapiens, UniProt Q00987)", "T1 construct": "in the presence of varying concentrations of HDM225-117", "T1 sequence (Q00987 25-117 limits assumed)": "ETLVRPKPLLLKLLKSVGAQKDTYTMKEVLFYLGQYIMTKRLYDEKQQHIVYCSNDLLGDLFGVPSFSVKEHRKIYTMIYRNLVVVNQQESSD", "assay": "direct binding fluorescence polarization assay"}, "HDMX": {"target": "T2, HDMX (Homo sapiens, UniProt O15151)", "T2 sequence (O15151 1-490)": "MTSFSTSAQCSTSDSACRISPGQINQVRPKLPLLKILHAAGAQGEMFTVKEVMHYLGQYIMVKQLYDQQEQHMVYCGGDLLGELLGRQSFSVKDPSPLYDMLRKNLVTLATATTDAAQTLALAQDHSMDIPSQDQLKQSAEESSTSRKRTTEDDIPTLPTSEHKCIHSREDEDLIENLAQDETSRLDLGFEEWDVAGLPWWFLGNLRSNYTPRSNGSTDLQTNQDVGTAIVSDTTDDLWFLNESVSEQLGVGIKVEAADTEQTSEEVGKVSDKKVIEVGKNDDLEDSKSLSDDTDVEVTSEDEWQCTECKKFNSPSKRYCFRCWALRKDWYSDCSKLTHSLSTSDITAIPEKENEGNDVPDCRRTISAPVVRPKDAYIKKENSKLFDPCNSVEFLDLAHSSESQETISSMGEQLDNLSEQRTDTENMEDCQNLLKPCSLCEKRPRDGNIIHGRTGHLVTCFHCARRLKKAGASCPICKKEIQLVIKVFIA", "assay": "binding experiments with HDMX", "conditions": "homolog of HDM2, selectivity"}, "HepG2 cells": {"system": "HepG2 cells", "assay": "western blot analysis of p53 and HDM2 levels, HepG2", "type": "cell-based, human", "conditions": "17 hours, 37° C."}, "Huh7 cells [1]": {"system": "Huh7 cells", "assay": "western blot analysis of HDM2 levels, Huh7", "type": "cell-based, human", "conditions": "Huh7 (mutant p53), 2, 5, 10 and 20 μM, 17 hours, 37° C."}, "Huh7 cells [2]": {"system": "Huh7 cells", "assay": "quantitative real-time PCR of HDM2 mRNA, Huh7", "type": "cell-based, human"}, "[3]": {"conditions": "stereochemical series, fluorescein labeled ligand at 10 nM, read-out: MDM2 Kd"}}, "note": "Where two headings read alike, the source gives them in different places. Part of at least one peptide drawing is inferred or uncertain, most often the ends.", "data": [{"smiles": "CC(C)CN1C(=O)[C@@H]2C[C@@]3(CN2C(=O)[C@@]12C[C@H]1C(=O)N(Cc4ccc(Cl)c(Cl)c4)[C@]4(C[C@@H]5C(=O)N[C@@H](CCc6ccccc6)C(=O)N5C4)C(=O)N1C2)NC(=O)[C@@H](CCCCNC(=S)Nc1ccc2c(c1)C(=O)OC21c2ccc(O)cc2Oc2cc(O)ccc21)NC3=O", "note": "[Entry 1]", "values": [{"measurement": "increase in affinity", "setting": "HDM2; entry 1 versus entry 9 (lysine stereocenter changed)", "value": "~17", "unit": "fold"}, {"measurement": "difference in binding", "setting": "HDM2; epimers, entries 12 and 1", "value": "four-fold"}, {"measurement": "Kd", "setting": "HDM2; labeled ligand at 10 nM, HDM2 25-117, read-out: Kd", "value": 0.4, "unit": "µM"}, {"measurement": "Kd", "setting": "HDM2; read-out: binds HDM2 at", "value": 0.4, "unit": "µM"}, {"measurement": "Kd", "setting": "HDM2; [3]", "value": 0.4, "unit": "µM"}, {"measurement": "Kd", "setting": "HDMX", "value": 19, "unit": "µM"}, {"measurement": "drop of p53 levels", "setting": "HepG2 cells; HepG2 (wild-type p53), 2, 5, 10 and 20 μM", "value": "up to 2.9 fold"}, {"measurement": "increase of HDM2 levels", "setting": "HepG2 cells; HepG2, 2, 5, 10 and 20 μM", "value": "up to 4 fold"}, {"measurement": "increase of HDM2 levels relative to control cells", "setting": "Huh7 cells [1]", "value": "up to 33 fold"}, {"measurement": "effect on the level of mRNA for HDM2", "setting": "Huh7 cells [2]", "value": "no effect"}]}, {"smiles": "CC(C)CN1C(=O)[C@@H]2C[C@@]3(CN2C(=O)[C@@]12C[C@H]1C(=O)N(Cc4ccc(Cl)c(Cl)c4)[C@@]4(C[C@H]5C(=O)N[C@H](CCc6ccccc6)C(=O)N5C4)C(=O)N1C2)NC(=O)[C@H](CCCCNC(=S)Nc1ccc2c(c1)C(=O)OC21c2ccc(O)cc2Oc2cc(O)ccc21)NC3=O", "note": "[Entry 8]", "values": [{"measurement": "Kd", "setting": "HDM2; [3]", "value": 23, "unit": "µM"}]}, {"smiles": "CC(C)CN1C(=O)[C@@H]2C[C@@]3(CN2C(=O)[C@@]12C[C@H]1C(=O)N(Cc4ccc(Cl)c(Cl)c4)[C@]4(C[C@@H]5C(=O)N[C@@H](CCc6ccccc6)C(=O)N5C4)C(=O)N1C2)NC(=O)[C@H](CCCCNC(=S)Nc1ccc2c(c1)C(=O)OC21c2ccc(O)cc2Oc2cc(O)ccc21)NC3=O", "note": "[Entry 9]", "values": [{"measurement": "Kd", "setting": "HDM2; [3]", "value": 6.7, "unit": "µM"}]}, {"smiles": "CC(C)CN1C(=O)[C@@H]2C[C@@]3(CN2C(=O)[C@@]12C[C@H]1C(=O)N(Cc4ccc(Cl)c(Cl)c4)[C@@]4(C[C@@H]5C(=O)N[C@H](CCc6ccccc6)C(=O)N5C4)C(=O)N1C2)NC(=O)[C@@H](CCCCNC(=S)Nc1ccc2c(c1)C(=O)OC21c2ccc(O)cc2Oc2cc(O)ccc21)NC3=O", "note": "[Entry 10]", "values": [{"measurement": "Kd", "setting": "HDM2; [3]", "value": 4.8, "unit": "µM"}]}, {"smiles": "CC(C)CN1C(=O)[C@@H]2C[C@@]3(CN2C(=O)[C@@]12C[C@H]1C(=O)N(Cc4ccc(Cl)c(Cl)c4)[C@@]4(C[C@H]5C(=O)N[C@H](CCc6ccccc6)C(=O)N5C4)C(=O)N1C2)NC(=O)[C@@H](CCCCNC(=S)Nc1ccc2c(c1)C(=O)OC21c2ccc(O)cc2Oc2cc(O)ccc21)NC3=O", "note": "[Entry 11]", "values": [{"measurement": "Kd", "setting": "HDM2; [3]", "value": 4.6, "unit": "µM"}]}, {"smiles": "CC(C)CN1C(=O)[C@@H]2C[C@@]3(CN2C(=O)[C@@]12C[C@H]1C(=O)N(Cc4ccc(Cl)c(Cl)c4)[C@]4(C[C@H]5C(=O)N[C@@H](CCc6ccccc6)C(=O)N5C4)C(=O)N1C2)NC(=O)[C@@H](CCCCNC(=S)Nc1ccc2c(c1)C(=O)OC21c2ccc(O)cc2Oc2cc(O)ccc21)NC3=O", "note": "[Entry 12]", "values": [{"measurement": "Kd", "setting": "HDM2; [3]", "value": 1.6, "unit": "µM"}]}]}
